{"source": "PubChem BioAssay AID662", "about": "(National Center for Advancing Translational Sciences (NCATS), 2007)", "note": "Out of some 71,000 compounds screened, about 1,800 (2.5%) were called active. The inconclusive results got no clear call from the source; some entries with a clear call stand among them for comparison. Calls come from the whole dose curve; as a rule, active = well fitted activation curve with a large enough effect in the signal ratio, with a control signal flat (not every such curve was filed as active); inconclusive = small, poorly fitted or top-dose-only effect, or effect the other way, or a change in a side signal; inactive = flat fitted curve, though single readings scatter; the % refers to the signal ratio. Potencies of inconclusive entries are doubtful fits and often do not repeat. Potency is the fitted concentration of half-maximal effect; tags give direction and shape of the fitted curve."}
{"test": "Cell signaling CRE-BLA (Fsk stim); for activity change, negative = inhibition: % of control where 0% means no effect", "conditions": "CHO CRE-bla reporter (cAMP response element driving beta-lactamase), forskolin EC10, beta-lactamase ratio; activity change, negative = inhibition: at 38.2 µM (top of the series) unless noted", "outline": "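The 460nm/530nm emission ratio after CCF4 loading defined %Activity, from which AC50 values were obtained. CRE-bla CHO cells received compound dilution series together with an EC10 level of NKH 477 for 3 hours at 37 degrees Celsius.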"}
{"smiles": "COc1cccc(OC)c1OCCCSc1nc(C)cc(=O)[nH]1", "activity change, negative = inhibition": "inconclusive: 17.4%"}
{"smiles": "CCN(CC)S(=O)(=O)c1ccc(NC2c3ncccc3C(=O)N2Cc2ccccc2)cc1", "note": "(stereo not drawn)", "activity change, negative = inhibition": "inactive: -22%"}
{"smiles": "COc1ccc(NC(=O)c2oc3ccccc3c2NC(=O)c2ccc(OC)c(OC)c2)c(OC)c1", "Potency": "inconclusive: 6.31 µM [rising, partial curve]"}
{"smiles": "COc1ccc(N2CCC(CNC(=O)Nc3ccc(OC)cc3OC)C2)cc1", "note": "(stereo not drawn)", "activity change, negative = inhibition": "inactive: -18.6%"}
{"smiles": "COc1ccc(-c2nn(-c3ccccc3)cc2C(=O)O)cc1", "activity change, negative = inhibition": "inactive: -5.82%"}
{"smiles": "O=S(=O)(O)c1ccc2c(N=Nc3c(O)ccc4ccccc34)cccc2c1", "activity change, negative = inhibition": "inactive: -0.154% [at 7.6 µM]"}
{"smiles": "COc1cccc(C(CC(=O)NCCN2CCOCC2)NS(=O)(=O)c2ccc(C)cc2)c1OC", "note": "(stereo not drawn)", "Potency": "inconclusive: 12.6 µM [rising, partial curve]"}
{"smiles": "CCc1ccc(S(=O)(=O)NCc2cn3ccccc3n2)s1", "activity change, negative = inhibition": "inconclusive: 16%"}
{"smiles": "CCn1c(SCC(=O)N2CCCCC2)nnc1-c1ccc(S(=O)(=O)N2CCN(C)CC2)cc1", "activity change, negative = inhibition": "inactive: 1.66%"}
{"smiles": "O=c1nc(N2CCOCC2)ccn1-c1nc(-c2ccccc2)oc1-c1ccccc1", "Potency": "inconclusive: 25.1 µM [rising, single point]"}
{"smiles": "CCOC(=O)c1cc2ccc(OC)c(OC)c2c(=O)s1", "Potency": "inconclusive: 12.6 µM [rising, partial curve]"}
{"smiles": "O=c1[nH]c2c(cc1CNCCN1CCOCC1)c(-c1cccc(F)c1)nn2-c1ccccc1", "Potency": "inconclusive: 20 µM [falling, single point]"}
{"smiles": "Nc1cc(C(=O)O)c(O)c(S(=O)(=O)O)c1", "activity change, negative = inhibition": "inactive: -12.8%"}
{"smiles": "Cc1cc(-c2ccccc2)nc(N2CCN(c3ccccn3)CC2)n1", "activity change, negative = inhibition": "inconclusive: 6.52%"}
{"smiles": "Cn1c(=O)c2c(nc(CN3CCN(Cc4ccccc4)CC3)n2Cc2cccc(Cl)c2)n(C)c1=O", "Potency": "inconclusive: 10 µM [rising, partial curve]"}
{"smiles": "CCSc1nncn1/N=C/c1ccc(OC)c(OC)c1", "Potency": "active: 10 µM"}
{"smiles": "COC(=O)c1ccc(Cn2c(CN3CCOCC3)nc3ccccc3c2=O)o1", "activity change, negative = inhibition": "inconclusive: -2.13%"}
{"smiles": "CCN(CC)C(=O)c1cn(C)c(=O)c2cc(OC)c(OC)cc12", "Potency": "inconclusive: 10 µM [rising, partial curve]"}
{"smiles": "Cc1ccc(Cn2nnc3c(=O)[nH]c(C4CCN(C(=O)Cc5cccs5)CC4)nc32)cc1", "Potency": "inconclusive: 25.1 µM [rising, single point]"}
{"smiles": "CCN(CC)S(=O)(=O)c1cccc(C(=O)OCc2cc(=O)n3nc(C)sc3n2)c1", "Potency": "inconclusive: 12.6 µM [rising, single point]"}
{"smiles": "CC1CCN(C(C(=O)Nc2ccc3c(c2)OCO3)c2ccccc2)CC1", "note": "(stereo not drawn)", "activity change, negative = inhibition": "inactive: -8.44%"}
{"smiles": "CCCC(=O)Nc1ccc(N2CCN(C(=O)c3cccs3)CC2)cc1", "activity change, negative = inhibition": "inconclusive: -2.06%"}
{"smiles": "Cc1ccccc1C(=O)NCc1ccncc1", "activity change, negative = inhibition": "inactive: 3.59%"}
{"smiles": "CCOC(=O)c1c(C)oc2c1c(C=NC1CCS(=O)(=O)C1)c(O)c1ccccc12", "note": "(stereo not drawn)", "activity change, negative = inhibition": "inactive: 4.92%"}
{"smiles": "COC(=O)c1sccc1NC(=O)c1cc(C)on1", "activity change, negative = inhibition": "inactive: 12.2%"}
{"smiles": "COc1ccc(-n2c(Cc3cccn3C)nnc2SCC(=O)Nc2ccc(C(C)=O)cc2)cc1", "activity change, negative = inhibition": "inconclusive: -13.1%"}
{"smiles": "N#CC1=C(N)SC(N)=C(C#N)C1c1ccc(C(F)(F)F)cc1", "activity change, negative = inhibition": "inactive: -9.06%"}
{"smiles": "CS(=O)(=O)Nc1ccc(Nc2c3ccccc3nc3ccccc23)cc1", "activity change, negative = inhibition": "inactive: 16.5% [at 7.6 µM]"}
{"smiles": "Cc1ccccc1CSc1nncn1N", "activity change, negative = inhibition": "inconclusive: 21.1%"}
{"smiles": "CC1CCCCN1Cc1nc2c(c(=O)n(C)c(=O)n2C)n1Cc1c(F)cccc1Cl", "note": "(stereo not drawn)", "Potency": "inconclusive: 7.94 µM [rising, partial curve]"}
{"smiles": "CC1=CC(=O)CC(C)(C)[C@]1(O)/C=C\\C(C)=C\\C(=O)O", "activity change, negative = inhibition": "inactive: 3.35% [at 7.6 µM]"}
{"smiles": "CCOC(=O)c1c(C)[nH]c(C(=O)Cn2c(=O)c3c(ncn3CC)n(Cc3ccccc3)c2=O)c1C", "Potency": "inconclusive: 6.31 µM [rising, partial curve]"}
{"smiles": "CCC1(C)Cc2c(c(=O)n(-c3ccccc3)c3ncnc(N)c23)CO1", "note": "(stereo not drawn)", "activity change, negative = inhibition": "inactive: 5.9%"}
{"smiles": "O=C(COc1ccccc1Cl)N1CCN(c2ncccn2)CC1", "activity change, negative = inhibition": "inconclusive: 0.59%"}
{"smiles": "COc1ccccc1-c1cc(C(=O)Nc2cc(C)on2)no1", "activity change, negative = inhibition": "inactive: -3.02%"}
{"smiles": "COc1cc2c(C(=O)NCc3ccccn3)cn(C)c(=O)c2cc1OC", "Potency": "active: 5.01 µM"}
{"smiles": "Cc1ccnc(-n2c(CCN3C(=O)c4ccccc4C3=O)nc3ccccc3c2=O)c1", "Potency": "inconclusive: 7.94 µM [rising, partial curve]"}
{"smiles": "Cc1cccc(OCCCC(=O)Nc2ccc(N3CCOCC3)cc2)c1", "activity change, negative = inhibition": "inconclusive: 22.1% [at 7.6 µM]"}
{"smiles": "Cc1ccc(-c2noc(CN(C(=O)C34CC5CC(CC(C5)C3)C4)C(C)C)n2)cc1", "activity change, negative = inhibition": "inactive: 4.33%"}
{"smiles": "Cc1sc2ncnc(SCC(=O)N3CCCC3)c2c1C", "Potency": "inconclusive: 10 µM [rising, partial curve]"}
{"smiles": "O=C(CN1CCN(c2ccc(F)cc2)CC1)Nc1ccc(F)c(F)c1", "activity change, negative = inhibition": "inconclusive: -16.9%"}
{"smiles": "COc1ccc(-c2nc3cnc(N4CCNCC4)nc3n(Cc3cccc(OC)c3)c2=O)cc1", "Potency": "inconclusive: 0.1 µM [rising, full curve]"}
{"smiles": "CCC(CC)NC(=O)c1cc(OC)c(OC)c(OC)c1", "activity change, negative = inhibition": "inconclusive: 24.6%"}
{"smiles": "CCOC(=O)N1CCC2(CC1)C(C#N)=C(N)Oc1c2c(C)nn1-c1cccc(Cl)c1", "activity change, negative = inhibition": "inconclusive: -5.05% [cytotoxic]"}
{"smiles": "Cn1nnnc1Sc1ncnc2scc(-c3ccccc3)c12", "Potency": "active: 0.501 µM"}
{"smiles": "Cn1c(-c2ccc3ccccc3n2)nc2cnccc21", "Potency": "inconclusive: 12.6 µM [rising, partial curve]"}
{"smiles": "COC(=O)COc1ccc(Oc2cc(C)nc(SC)n2)nn1", "activity change, negative = inhibition": "inconclusive: 24.5%"}
{"smiles": "COC(=O)[C@@]1(Cc2ccc(OC)cc2)[C@H]2c3cc(C(=O)N(C)C)n(C)c3C[C@H]2CN1C(=O)c1ccccc1", "activity change, negative = inhibition": "inconclusive: 25.2%"}
{"smiles": "CC1(C)CC(=O)C(C=Nc2ccc3cn[nH]c3c2)=C(O)C1", "activity change, negative = inhibition": "inconclusive: -21.6%"}
{"smiles": "O=S(=O)(CCc1nc2ccccc2o1)c1ccc(Cl)cc1", "activity change, negative = inhibition": "inconclusive: 5.88%"}
{"smiles": "C1=C(c2cccc3ccccc23)N2CCN=C2S1", "activity change, negative = inhibition": "inconclusive: 6.32% [cytotoxic]"}
{"smiles": "Cc1nc2nc(C)c(CCC(=O)NCc3ccc4c(c3)OCO4)c(C)n2n1", "Potency": "inconclusive: 2.51 µM [rising, partial curve]"}
{"smiles": "CCC(=O)NCCN1CCN(C(=O)CC)CC1", "activity change, negative = inhibition": "inconclusive: 1.66%"}
{"smiles": "O=C(CSc1nnc(-c2ccccn2)n1-c1ccccc1)Nc1ccc2c(c1)OCO2", "Potency": "inconclusive: 7.94 µM [rising, partial curve]"}
{"smiles": "O=C(NCc1ccco1)Nc1cccs1", "activity change, negative = inhibition": "inconclusive: -9.96%"}
{"smiles": "Cn1c(SCC(=O)N2CCCCC2)nnc1-c1ccc(S(=O)(=O)N2CCOCC2)cc1", "activity change, negative = inhibition": "inactive: -5.77%"}
{"smiles": "CCCC(=O)Nc1nc(C(=O)OCC)cs1", "activity change, negative = inhibition": "inconclusive: -3.36%"}
{"smiles": "COc1ccc2[nH]cc(CCNc3ncncc3-c3ccccc3C)c2c1", "activity change, negative = inhibition": "inconclusive: 16.4%"}
{"smiles": "CC(=O)Oc1ccccc1N1C(=O)c2ccc(C(=O)O)cc2C1=O", "activity change, negative = inhibition": "inconclusive: -21.7% [at 7.6 µM]"}
{"smiles": "COc1ccc(Oc2ncc3nc(C)c(=O)n(CCc4ccccc4)c3n2)cc1", "Potency": "active: 2.51 µM"}
{"smiles": "CNC(=O)c1ccccc1NC(=O)c1ccc(C)c(S(=O)(=O)N2CCCCC2)c1", "activity change, negative = inhibition": "inconclusive: 22.7%"}
{"smiles": "N#Cc1c(N2CCN(C(=O)c3ccco3)CC2)nc(-c2ccccc2)c2c1CCCC2", "activity change, negative = inhibition": "inconclusive: -1.1% [cytotoxic]"}
{"smiles": "CCCNC(=O)N1CCN(c2nc(C(C)C)c3c(c2C#N)CC(C)(C)OC3)CC1", "activity change, negative = inhibition": "inactive: 17.5%"}
{"smiles": "CCC1Oc2ccc(C)cc2N(CC(=O)NCc2cccc(OC)c2)C1=O", "note": "(stereo not drawn)", "activity change, negative = inhibition": "inactive: -17.3%"}
{"smiles": "Cc1cc(NC(=O)c2cccc(S(=O)(=O)N3CCCCCC3)c2)n(-c2ccccn2)n1", "activity change, negative = inhibition": "inactive: 23.7%"}
{"smiles": "C=CCSc1nnc(CSc2nc3sc4c(c3c(=O)[nH]2)CCCC4)n1-c1ccccc1", "Potency": "inconclusive: 12.6 µM [rising, partial curve]"}
{"smiles": "COC(=O)Cc1cc(=O)n(-c2ccccc2)[nH]1", "Potency": "inconclusive: 15.8 µM [falling, partial curve]"}
{"smiles": "COc1ccc2cc(C(=O)CCC(=O)O)ccc2c1", "activity change, negative = inhibition": "inactive: -7.67% [at 7.6 µM]"}
{"smiles": "COc1cc(S(=O)(=O)N2CCCCCC2)ccc1Cl", "activity change, negative = inhibition": "inconclusive: 29%"}
{"smiles": "Cc1ccccc1-c1coc2cc(O)ccc2c1=O", "activity change, negative = inhibition": "inactive: -13.9%"}
{"smiles": "C=CCc1cc(C)ccc1OCC(O)CN1CCN(c2ccccc2)CC1", "note": "(stereo not drawn)", "activity change, negative = inhibition": "inconclusive: -26.8%"}
{"smiles": "Cc1nc2cnc(N(C)C)nc2n(C)c1=O", "Potency": "inconclusive: 10 µM [rising, partial curve]"}
{"smiles": "O=C(CCSCCC(=O)NCC1CCCO1)NCC1CCCO1", "note": "(stereo not drawn)", "activity change, negative = inhibition": "inactive: -3.16%"}
{"smiles": "O=C(CN1CCC(c2nc3ccccc3[nH]2)CC1)NCc1ccc2c(c1)OCO2", "activity change, negative = inhibition": "inconclusive: -28.2%"}
{"smiles": "O=C(NCCN1CCOCC1)c1ccc2c(c1)N(Cc1ccccc1)C(=O)CS2", "activity change, negative = inhibition": "inactive: 1.38%"}
{"smiles": "COCC(C)NS(=O)(=O)c1ccc(OC)cc1", "note": "(stereo not drawn)", "activity change, negative = inhibition": "inconclusive: 4.55% [at 7.6 µM]"}
{"smiles": "CCOC(=O)c1cc(C#N)c(N)nc1C", "Potency": "active: 10 µM"}
{"smiles": "N#Cc1ccc(CN2CC3(CCN(C(=O)c4csnn4)CC3)C2)cc1", "activity change, negative = inhibition": "inactive: 1.07%"}
{"smiles": "COc1cc(-c2nnc3sc(-c4ccccn4)nn23)cc(OC)c1OC", "Potency": "active: 0.0251 µM"}
{"smiles": "CCN(CC)c1c(-c2ccccc2)c2cc(C)ccc2[nH]c1=O", "Potency": "inconclusive: 7.94 µM [rising, partial curve]"}
{"smiles": "Cc1nc(-c2ccc(NC(=O)c3cccs3)cc2)cs1", "activity change, negative = inhibition": "inconclusive: -2.41%"}
{"smiles": "COc1ccc2c(-c3ccccc3)cc(N3CCOCC3)nc2c1", "Potency": "inconclusive: 3.98 µM [rising, single point]"}
{"smiles": "O=C(O)CCC/C=C\\C[C@@H]1CO[C@H](C(F)(F)F)O[C@@H]1c1ccccc1O", "Potency": "inconclusive: 20 µM [falling, partial curve, poor fit]"}
